Where “and” joins values, the source holds several entries; their conditions need not be identical. Identical values can stand only once. About 64,000 (15%) of roughly 420,000 compounds were called active. This list was built around the results that the source calls inconclusive (neither active nor inactive); the mix of calls is not that of the screen. The call rests on the fitted dose curve; in most records, active means well fitted inhibition curve with a large enough effect; inconclusive means small, poorly fitted or top-dose-only effect; inactive means flat fitted curve, though single readings scatter. Potencies beside an inconclusive call are fits to weak or partial responses and may not hold up.
assay: qHTS for Inhibitors of human tyrosyl-DNA phosphodiesterase 1 (TDP1): qHTS in cells in absence of CPT; conditions: DT40 Tdp1-/- hTDP1 cells, no CPT, ATP luminescence, 48 h; activity change, negative = growth inhibition: at 46.2 µM (top of the series) unless noted; further: nearly all actives have a fitted effect of over 55% in size
Summary of the method: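 Chicken DT40 Tdp1-/- cells stably complemented with human TDP1 were seeded at 400 cells/well with DMSO in place of 20 nM camptothecin. After compound pinning, cells grew at least 48 hr at 37 °C; viability read by CellTiter-Glo luminescence.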
On the % scale 0 is the no-effect control and ±100 the full control effect; potency means the concentration at half of the fitted maximal effect; tags describe the fitted curve by direction and shape.

Q: Which “activity change, negative = growth inhibition” value does the source give for O=C(CN1C(=O)c2ccccc2S1(=O)=O)Nc1ccc([N+](=O)[O-])cc1 here?
A: inactive: 4.63%

Q: For Cc1nn(-c2ccccc2)c2c1N(CC(=O)N1CCN(c3cccc(Cl)c3)CC1)C(=O)CS2, which Potency is on record?
A: active: 20.6 µM

Q: Which Potency does the source give for O=C(c1ccc2c(=O)n(CCc3ccccc3)c(=O)[nH]c2c1)N1CCN(c2ccc(F)cc2)CC1 here?
A: active: 7.31 µM and active: 13 µM

Q: With COc1ccc(Cn2c(=O)c3oc4ccccc4c3n(Cc3cccc(C(F)(F)F)c3)c2=O)cc1 as the compound, how does the Potency read?
A: inconclusive: 7.31 µM [inhibitor, partial curve]

Q: With Clc1ccc2nc(N3CCNCC3)nc(-c3ccccc3)c2c1 as the compound, how does the Potency read?
A: active: 9.2 µM

Q: Which Potency does the source give for COc1ccc(CNC(=O)Nc2nc(C(N)CCc3ccccc3)cs2)cc1 (stereo unspecified) here?
A: inconclusive: 20.6 µM [inhibitor, single point]

Q: With CCCCOC(=O)C1=C(C)Nc2ncnn2C1c1ccc(OC)c(OC)c1OC (stereo unspecified) as the compound, how does the Potency read?
A: inconclusive: 14.6 µM [inhibitor, partial curve]

Q: With COc1cccc(C(O)c2nc(-c3ccc(F)cc3OC)cs2)c1 (stereo unspecified) as the compound, how does the Potency read?
A: inconclusive: 4.11 µM [inhibitor, full curve, poor fit]

Q: With Cc1c(OCC(=O)NC(Cc2ccc(Cl)cc2)C(=O)O)ccc2c(-c3ccccc3)cc(=O)oc12 (stereo unspecified) as the compound, how does the “activity change, negative = growth inhibition” value read?
A: inactive: 8.63%

Q: For COc1cc(-c2nc3c(c(C)nn3-c3ccccc3)c3cc(OC)c(OC)cc23)ccc1O, which Potency is on record?
A: active: 20.6 µM

Q: For COc1cccc(N2CC(NC(=O)c3ccco3)CC2=O)c1 (stereo unspecified), which “activity change, negative = growth inhibition” value is on record?
A: inactive: -3.94%

Q: Which Potency does the source give for O=C(CSc1oc(-c2cccs2)nc1S(=O)(=O)c1ccccc1)NC1CCCCC1 here?
A: inconclusive: 20.6 µM [inhibitor, partial curve]

Q: With N#Cc1c(N)nc(N2CCCC2)c(C#N)c1-c1ccc(Cl)cc1 as the compound, how does the Potency read?
A: inconclusive: 20.6 µM [inhibitor, single point]

Q: For Cc1ccc(S(=O)(=O)NCc2ccccc2)cc1C(=O)N1CCN(S(=O)(=O)c2ccccc2F)CC1, which Potency is on record?
A: inconclusive: 29.1 µM [inhibitor, single point]

Q: Which Potency does the source give for C(=Cc1c[nH]c2ccccc12)c1nccc2ccccc12 here?
A: inconclusive: 29.1 µM [inhibitor, single point]

Q: With CCCCCC(=O)Nc1cccc(C2=NOC3(C2)C[C@H](C(N)=O)N(C(=O)c2ccccc2)C3)c1 (stereo partly specified) as the compound, how does the Potency read?
A: inconclusive: 18.4 µM [inhibitor, single point]

Q: For Cc1ccc(N2C(=O)C(CC(=O)Nc3cccc(F)c3)N(C3CC3)C2=O)cc1 (stereo unspecified), which “activity change, negative = growth inhibition” value is on record?
A: inactive: 2.09%

Q: With O=C(O)CSc1ccc(NC(=O)Nc2ccccc2F)cc1 as the compound, how does the Potency read?
A: inconclusive: 1.46 µM [inhibitor, partial curve]

Q: With CC(=O)c1cccc(NC(=O)C2CCCN2S(=O)(=O)c2cccc3cccnc23)c1 (stereo unspecified) as the compound, how does the “activity change, negative = growth inhibition” value read?
A: inactive: -27.7%

Q: For COc1cc(C2C(C(C)=O)=C(C)Nc3ncnn32)ccc1O (stereo unspecified), which “activity change, negative = growth inhibition” value is on record?
A: inactive: -5.47%

Q: For COc1cccc(N2CCN(C(=O)CCc3c(C)nc4c(c3C)c(=O)n(C)c(=O)n4C)CC2)c1, which Potency is on record?
A: inconclusive: 5.8 µM [inhibitor, full curve]

Q: For Cc1cccc(C)c1NC(=O)c1sccc1SCc1cccc(C(F)(F)F)c1, which Potency is on record?
A: active: 18.4 µM

Q: Which Potency does the source give for Cc1cc(C)c2c(C)c(C(=O)Nc3c(C)n(C)n(-c4ccccc4)c3=O)oc2c1 here?
A: inconclusive: 29.1 µM [inhibitor, single point]

Q: For COc1ccc(NC(=O)NCCN2CCN(c3ccc(C)cc3)CC2)c(Cl)c1, which Potency is on record?
A: inconclusive: 5.17 µM [inhibitor, full curve]

Q: With Cn1ncc(Cl)c1C(=O)Nc1ccc(CN2CCCCC2)cc1 as the compound, how does the “activity change, negative = growth inhibition” value read?
A: inactive: 3.38%

Q: Which Potency does the source give for Oc1ccc(N=Nc2ccc3c(c2)OCCO3)c(O)c1 here?
A: inconclusive: 32.6 µM [inhibitor, single point]

Q: For CCN(CC)CCCNC(=O)c1c(O)c2c([nH]c1=O)CCCC2, which “activity change, negative = growth inhibition” value is on record?
A: inactive: -17.9%

Q: For COc1ccc(-c2cc3c(c4c2ccn4C)C2CCC3C2)cc1F (stereo unspecified), which Potency is on record?
A: inconclusive: 23.1 µM [inhibitor, single point]

Q: Which Potency does the source give for COc1ccc(Cl)cc1N=Nc1ncc[nH]1 here?
A: inconclusive: 13.3 µM [inhibitor, full curve, poor fit] and inconclusive: 20.6 µM [inhibitor, partial curve]

Q: With Cc1ccc(C(=O)N/C(=C/c2ccco2)C(=O)NCCc2c[nH]c3ccccc23)cc1C as the compound, how does the Potency read?
A: inconclusive: 29.1 µM [inhibitor, single point]

Q: For CCCCN(C)CCCNC(=O)c1cn(CC)c2ccc(S(=O)(=O)N3CCOCC3)cc2c1=O, which “activity change, negative = growth inhibition” value is on record?
A: inactive: 19%

Q: For Nc1nnn(CC(=O)N/N=C/c2cn[nH]c2-c2ccccc2)n1, which “activity change, negative = growth inhibition” value is on record?
A: inactive: -10.2%

Q: For Cc1nn(-c2ccccn2)c2c1-c1nc(N3CCOCC3)ncc1CC2, which Potency is on record?
A: active: 23.1 µM

Q: Which Potency does the source give for COc1ccc(CCC(=O)Nc2ccc(C)c(S(=O)(=O)N(C)C)c2)cc1OC here?
A: active: 16.4 µM

Q: With Brc1ccc(/C=C/C=N/Nc2nc3ccccc3s2)cc1 as the compound, how does the Potency read?
A: inconclusive: 25.9 µM [inhibitor, single point]

Q: Which “activity change, negative = growth inhibition” value does the source give for CCOC(=O)CCCCCC(=O)Nc1ccc2c(c1)C(=O)N([C@@H](C)CO)C[C@@H](C)[C@H](CN(C)C(=O)Nc1ccccc1)OCCCC[C@H](C)O2 here?
A: inactive: 6.25%

Q: For COC(=O)c1ccc(C(NC(=O)OCc2ccccc2)/C(F)=C/[C@@H](C)C(=O)NCc2ccc(OC)c(OC)c2)cc1 (stereo partly specified), which Potency is on record?
A: inconclusive: 29.1 µM [inhibitor, single point]

Q: Which Potency does the source give for Cc1ccccc1Oc1ccc2c(c1)[C@@H]1C[C@H](N(C)C(=S)Nc3ccc(F)cc3)[C@H]([C@H](C)O)C(=O)N1CC2 here?
A: inconclusive: 25.9 µM [inhibitor, single point]

Q: With COCC(C)n1c(SCC(=O)N2CCCCC2)nc2ccccc2c1=O (stereo unspecified) as the compound, how does the Potency read?
A: inconclusive: 25.9 µM [inhibitor, single point]

Q: With O=S(Cc1ccc(Br)cc1)Cc1nnc(SCc2ccc(Br)cc2)n1-c1ccccc1 (stereo unspecified) as the compound, how does the Potency read?
A: active: 10.3 µM

Q: For CC1=CC(=O)C=C(C)C1=NOC(=O)c1cccc([N+](=O)[O-])c1, which Potency is on record?
A: inconclusive: 23.1 µM [inhibitor, single point]

Q: For COc1ccc(-c2sc3ccc(-c4ccc5c(c4)OCO5)cc3c2-c2ccc(OC)nc2)cc1, which Potency is on record?
A: inconclusive: 6.51 µM [inhibitor, partial curve]

Q: For CCN(CC)c1cc2c(cc1F)c(=O)c(S(=O)(=O)c1ccc(OC)cc1)cn2CC, which Potency is on record?
A: active: 14.6 µM

Q: For CC1=C(C(=O)Nc2ccccc2F)C(c2cccs2)NC(=S)N1 (stereo unspecified), which “activity change, negative = growth inhibition” value is on record?
A: inactive: -24.5%

Q: With COCCn1cc(C(=S)N2CCOCC2)c2ccccc21 as the compound, how does the “activity change, negative = growth inhibition” value read?
A: inactive: 4.77%

Q: With O=[N+]([O-])c1c(Nc2ccc(O)cc2)cc(Cl)c2nonc12 as the compound, how does the Potency read?
A: active: 1.3 µM

Q: Which “activity change, negative = growth inhibition” value does the source give for Cc1nnc(SCc2nc(N)nc(Nc3ccccc3)n2)s1 here?
A: inactive: -3.64%

Q: For COc1ccc(C2=NOC(Cn3nc(-c4ccccc4)cc3C(=O)NCc3cccc(Br)c3)C2)cc1 (stereo unspecified), which Potency is on record?
A: inconclusive: 11.6 µM [inhibitor, partial curve]

Q: Which Potency does the source give for O=C(Nc1ccc2oc(-c3ccccc3F)nc2c1)c1ncn[nH]1 here?
A: inconclusive: 29.1 µM [inhibitor, single point]

Q: With CCn1c(SCC(=O)NNC(=S)Nc2ccccc2)nnc1-c1ccc(Cl)cc1 as the compound, how does the Potency read?
A: inconclusive: 23.1 µM [inhibitor, single point]

Q: For CC(C)(C)c1ccc(-c2nc(SCCCOc3ccccc3)n3[nH]c(=O)cc3n2)cc1, which Potency is on record?
A: inconclusive: 29.1 µM [inhibitor, single point]

Q: Which “activity change, negative = growth inhibition” value does the source give for COc1ccccc1N1CCN(c2cc(=O)n(-c3ccc(Br)cc3)c(=O)[nH]2)CC1 here?
A: inactive: -11%

Q: For COc1ccc(CCN2C(=O)c3ccccc3C2c2nnnn2-c2ccc3c(c2)OCCO3)cc1OC (stereo unspecified), which activity change, negative = growth inhibition is on record?
A: inconclusive: -30.9% [inhibitor]

Q: Which Potency does the source give for CCCc1cc(-c2nc(-c3ccc(Br)cc3)cs2)ccn1 here?
A: inconclusive: 29.1 µM [inhibitor, single point]

Q: With CCOc1ccc(/C=N/Nc2nc(=O)[nH]nc2C)cc1OC as the compound, how does the “activity change, negative = growth inhibition” value read?
A: inactive: 8.46%

Q: Which Potency does the source give for CCOC(=O)N1CCN(c2c(F)cc3[nH]c(=S)[nH]c3c2Br)CC1 here?
A: active: 18.4 µM

Q: With c1ccc2c3c([nH]c2c1)CCCC3 as the compound, how does the activity change, negative = growth inhibition read?
A: inconclusive: -31.3% [inhibitor]

Q: Which Potency does the source give for Cn1nnc2c(N3CCN(c4ccccc4Cl)CC3)ncnc21 here?
A: inconclusive: 11.6 µM [inhibitor, single point]

Q: For Cc1ccc2nc(NC(=O)C3CCN(S(=O)(=O)c4cnc[nH]4)CC3)sc2c1, which Potency is on record?
A: active: 16.4 µM

Q: For Cc1ccc(C(=O)NC(=S)N2CCCC2)cc1, which “activity change, negative = growth inhibition” value is on record?
A: inactive: 10.3%

Q: For COc1cc2[nH]c(-c3ccc(C)cc3)cc(=O)c2cc1OC, which Potency is on record?
A: inconclusive: 32.6 µM [inhibitor, partial curve, poor fit]

Q: For CCOC(=O)c1ccccc1NC(=O)N(C(C)C)C1CCN(C(C)=O)CC1, which Potency is on record?
A: active: 14.6 µM

Q: For COc1ccc(NC(=O)CN2C(=O)NC(C)(C3CC3)C2=O)cc1S(=O)(=O)N1CCCCC1 (stereo unspecified), which “activity change, negative = growth inhibition” value is on record?
A: inactive: -0.177%

Q: For Oc1ccc(N=Nc2ccccc2)cc1, which Potency is on record?
A: inconclusive: 9.2 µM [inhibitor, partial curve]

Q: With CC1C(c2ccccc2)OCCN1C(=S)Nc1ccc(S(=O)(=O)N2CCCCC2)cc1 (stereo unspecified) as the compound, how does the Potency read?
A: inconclusive: 13 µM [inhibitor, partial curve]

Q: Which Potency does the source give for Cc1ccc(-c2nnc(SCc3cccc(C#N)c3)o2)cc1 here?
A: inconclusive: 29.1 µM [inhibitor, single point]

Q: Which Potency does the source give for CCOC(=O)c1cccnc1SCC(=O)Nc1ccc(C)cc1C here?
A: inconclusive: 29.1 µM [inhibitor, single point]

Q: With O=c1c(Cc2ccccc2)c(O)ccn1Cc1ccco1 as the compound, how does the “activity change, negative = growth inhibition” value read?
A: inactive: -0.847%

Q: With O=C(/C=C/c1ccc(Cl)cc1)NCCCn1ccnc1 as the compound, how does the “activity change, negative = growth inhibition” value read?
A: inactive: 0.819%

Q: With O=[N+]([O-])c1ccc(Cl)c(C[n+]2cccc3ccccc32)c1 as the compound, how does the Potency read?
A: active: 18.4 µM

Q: Which Potency does the source give for CCOc1ccc(NC(=O)Cn2nnc(-c3ccccc3NC(=O)c3cccs3)n2)cc1 here?
A: inconclusive: 23.1 µM [inhibitor, partial curve]

From PubChem BioAssay AID686978 (National Center for Advancing Translational Sciences (NCATS), 2013)
